From PMC4336329 (PLoS ONE, 2015) come the findings set out here.

Screen size: about 310,000 compounds; about 14,000 (4.5%) showed an effect of 50% or more. Effects have a minus sign here. The list shows a part of the results.
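Also: peak tail current of the secondary pulse compared with the same well before compound.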

For this assay, the target named is human ether-à-go-go-related gene (hERG) potassium channel (human, UniProt Q12809). Briefly: primary screen, population patch clamp on CHO cells stably expressing hERG.
Sequence of human ether-à-go-go-related gene (hERG) potassium channel (Q12809 whole entry, looked up): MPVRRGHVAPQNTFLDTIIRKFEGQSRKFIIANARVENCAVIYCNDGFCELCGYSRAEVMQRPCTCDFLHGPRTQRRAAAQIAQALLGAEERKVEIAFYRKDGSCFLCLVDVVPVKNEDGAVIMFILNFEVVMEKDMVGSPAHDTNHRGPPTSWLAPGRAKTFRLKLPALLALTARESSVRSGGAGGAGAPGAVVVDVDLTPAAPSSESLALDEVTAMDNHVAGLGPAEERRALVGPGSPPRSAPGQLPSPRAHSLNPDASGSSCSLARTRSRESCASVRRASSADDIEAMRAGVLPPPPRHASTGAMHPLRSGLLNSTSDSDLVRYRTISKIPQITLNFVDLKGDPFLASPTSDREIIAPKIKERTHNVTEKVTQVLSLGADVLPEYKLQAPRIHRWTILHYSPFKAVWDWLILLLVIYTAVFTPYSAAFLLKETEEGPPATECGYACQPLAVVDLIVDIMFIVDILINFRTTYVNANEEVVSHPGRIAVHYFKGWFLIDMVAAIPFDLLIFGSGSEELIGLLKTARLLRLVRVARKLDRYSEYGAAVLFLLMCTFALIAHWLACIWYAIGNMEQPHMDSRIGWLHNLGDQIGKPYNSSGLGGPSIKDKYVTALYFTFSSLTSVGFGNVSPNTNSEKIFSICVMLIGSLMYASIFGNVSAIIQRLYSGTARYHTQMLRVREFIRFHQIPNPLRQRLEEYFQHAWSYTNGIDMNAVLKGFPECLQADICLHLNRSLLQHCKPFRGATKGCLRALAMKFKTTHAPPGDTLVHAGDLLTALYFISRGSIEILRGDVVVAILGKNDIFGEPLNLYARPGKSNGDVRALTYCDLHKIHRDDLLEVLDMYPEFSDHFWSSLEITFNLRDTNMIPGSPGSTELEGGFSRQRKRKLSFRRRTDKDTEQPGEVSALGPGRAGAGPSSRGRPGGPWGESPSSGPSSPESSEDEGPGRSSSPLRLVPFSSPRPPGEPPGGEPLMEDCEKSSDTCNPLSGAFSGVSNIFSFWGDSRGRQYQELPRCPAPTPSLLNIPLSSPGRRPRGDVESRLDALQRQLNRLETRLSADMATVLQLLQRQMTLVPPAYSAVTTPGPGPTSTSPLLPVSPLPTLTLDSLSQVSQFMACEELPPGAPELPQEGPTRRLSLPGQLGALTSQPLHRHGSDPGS
With `COc1ccc(N2CCN(C(=S)Nc3cc(C)cc(C)c3)CC2)cc1`, the “hERG current change (%, negative = inhibition) at 10uM” value is listed as -9.32%. As to `c1ccc2c(NC3=NCCCCS3)cccc2c1`, the “hERG current change (%, negative = inhibition) at 10uM” value was -18.5%. The result for `CCOc1cc(C=O)ccc1OCCSc1ccc(C)cc1` reads -18.9%; that for `CCNC(=O)NC(=O)C(C)Sc1ncc(C(F)(F)F)cc1Cl` (centres unmarked), 6.93%; that for `Cc1cc(NC(=O)c2ccc([N+](=O)[O-])cc2Cl)ccc1NC(=O)c1ccco1`, 3.44%. Take `COC(=O)c1sc(C(F)(F)F)c(-c2ccccc2)c1S(=O)(=O)N1CCCC1`: the “hERG current change (%, negative = inhibition) at 10uM” value was -14.1%. With `O=C(CN1C(=O)c2ccccc2C1=O)NCC1CCCO1` (centres unmarked) the figure was -9.91%.

As for `CC(C)c1ccc(NC(=S)Nc2ccc3cn[nH]c3c2)cc1`, the “hERG current change (%, negative = inhibition) at 10uM” value is on record as 30.6%. With `COc1ccc(OC)c(NS(=O)(=O)c2cccs2)c1` the figure was -15.5%; with `Cc1cc(NC(=O)CSc2nnc(COc3ccccc3)n2Cc2ccco2)no1`, 2.24%; with `CCCOc1ccc(C2=CSC3=NCCN23)cc1.Cl`, -28.3%. With `CCN(CC(=O)Nc1c(F)cccc1F)C(=O)c1ccc2c(c1)S(=O)(=O)N=C1CCCCCN12` the figure was 9.69%; with `O=S(=O)(NCc1ccc(Cl)cc1Cl)c1ccc(N2CCOCC2)nc1`, -28.4%.

With `Cc1ccc(C(=O)C2=C(O)C(=O)N(Cc3cccnc3)C2c2ccc(N(C)C)cc2)o1` (centres unmarked), the “hERG current change (%, negative = inhibition) at 10uM” value is 16.5%. Take `CCC(C)NS(=O)(=O)c1ccc(S(=O)(=O)N2CC=C(c3ccc(F)cc3)CC2)cc1` (centres unmarked): the “hERG current change (%, negative = inhibition) at 10uM” value is given as -12.4%. The result for `COc1ccc(C(=O)Nc2cc(OC)c(Cl)cc2Cl)cc1` reads 18.1%; that for `CC(C)OCCCN1C(=O)c2ccccc2C1C(=O)NC1CCCCC1` (centres unmarked), -7.62%; that for `CC(=O)c1nn(-c2ccc(C(F)(F)F)cc2)c(=O)[nH]c1=O`, 27.7%. The result for `CN1CCN(C(=O)/C(=C/c2ccc(F)cc2)c2ccsc2)CC1.Cl` reads -70.1%; that for `O=C(NNc1ncnc2c1cnn2-c1ccc(F)cc1)c1cccs1`, 6.55%.

On to `CCOC(=O)CSc1nc(C)c(CC)c(C)c1C(N)=O`, for which the “hERG current change (%, negative = inhibition) at 10uM” value worked out at 20.9%. For `COCCC1CCCCN1C(=O)c1ccc2nc(Cc3ccccc3F)oc2c1` (centres unmarked), the “hERG current change (%, negative = inhibition) at 10uM” value was -4.88%.

Regarding `CC(C)C(NS(=O)(=O)c1ccc2c3c(cccc13)C(=O)N2)C(=O)O` (centres unmarked), the “hERG current change (%, negative = inhibition) at 10uM” value amounted to 12%.

For the compound `CC(C)CC(=O)N1CCN(Cc2ccccc2Cl)CC1`, the “hERG current change (%, negative = inhibition) at 10uM” value came to 19.8%.

`COc1ccc(-c2nc(CS(=O)CC(=O)NCc3ccc(C)cc3)c(C)o2)cc1OC` (centres unmarked): the “hERG current change (%, negative = inhibition) at 10uM” value is listed as -12.5%. For the compound `O=C(Nc1ccccc1)N(CCc1nc2ccccc2[nH]1)C1CCCC1`, the “hERG current change (%, negative = inhibition) at 10uM” value was -24%. Regarding `N/C(=N\OC(=O)CCC1CCCC1)c1ccccc1`, the “hERG current change (%, negative = inhibition) at 10uM” value came out at 3.63%.

Consider `C=C(C)c1ccc(C(C)(C)NC(=O)N2CCN(C)CC2)cc1`, for which the “hERG current change (%, negative = inhibition) at 10uM” value is -10.3%. As to `COc1ccc(-c2nc(CN(CC3CCC(=O)N3)C(C)C)c(C)o2)c(C)c1C` (centres unmarked), the “hERG current change (%, negative = inhibition) at 10uM” value is given as 9.2%. With `Cc1ccc(N(Cc2cc3ccc(C)cc3[nH]c2=O)S(C)(=O)=O)c(C)c1` the figure was -8.56%. For the compound `CCC1CCC/C1=N\NC(=O)c1ccccc1C` (centres unmarked), the “hERG current change (%, negative = inhibition) at 10uM” value is listed as 11.3%. The result for `COc1ccc(C(=O)N2CCNC(=O)C2CC(=O)Nc2cc(Cl)ccc2OC)cc1` (centres unmarked) reads -8.14%; that for `CCN(CC)c1ccc(NC(=O)CN2CCN(c3ccccc3F)CC2)cc1`, -5.61%; that for `CCOC(=O)CCc1c(C)nc(SCCCn2c(=O)[nH]c3ccccc32)c(C#N)c1C`, 4.73%. Consider `CCOC(=O)c1c(C)nc2c(c1-c1cc(OC)c(OC)c(OC)c1)C(=O)c1ccccc1-2`, for which the “hERG current change (%, negative = inhibition) at 10uM” value was determined as 3.3%. On to `CCOC(=O)C(CC)/C(C)=N/NC(=O)c1ccc([N+](=O)[O-])cc1` (centres unmarked), for which the “hERG current change (%, negative = inhibition) at 10uM” value is listed as -16.1%. For `CN(C)CCn1c(COc2ccccc2)nc2ccccc21.Cl.O`, the “hERG current change (%, negative = inhibition) at 10uM” value is on record as -27.8%.

As for `COC(=O)c1ccc(NC(=O)CSCc2ccccc2)cc1`, the “hERG current change (%, negative = inhibition) at 10uM” value was -13.8%. For `N#Cc1c(/N=C/c2cc(Br)cs2)sc2c1CCC2`, the “hERG current change (%, negative = inhibition) at 10uM” value stood at 9.83%.

With `Cc1cc(F)ccc1S(=O)(=O)N1CCCOC1CNC(=O)C(=O)NC1CCCCC1` (centres unmarked), the “hERG current change (%, negative = inhibition) at 10uM” value is -18%. With `Cc1cc(SCC(=O)OCC(=O)N(C)C2CCS(=O)(=O)C2)c(C)cc1Br` (centres unmarked) the figure was -73.1%; with `C#CCn1c(O)c(N=NC(=O)C(O)c2ccccc2)c2ccccc21` (centres unmarked), -13.7%. As for `COc1ccc(N2C(=O)CN(Cc3ccc(OC)c(OC)c3)C2=S)cc1`, the “hERG current change (%, negative = inhibition) at 10uM” value turned out to be 2.97%. Turning to `COc1cccc(/C=N/NC(=O)c2cnccn2)c1OC`, the “hERG current change (%, negative = inhibition) at 10uM” value was 12.5%.

With `COc1ccc(S(=O)(=O)NCCCn2ccnc2)cc1Cl`, the “hERG current change (%, negative = inhibition) at 10uM” value came out at 1.55%.

As to `CCN(CC)C(=O)COc1ccc(/C(C)=N/NC(=O)c2ccccc2-n2cccc2)cc1`, the “hERG current change (%, negative = inhibition) at 10uM” value amounted to 2.79%. With `CC(=O)Oc1ccc(C(=O)Cc2ccc3ccccc3n2)c(O)c1C`, the “hERG current change (%, negative = inhibition) at 10uM” value turned out to be 14.2%. With `CCCC(=O)NC(NC(=S)Nc1ccc(N=Nc2ccccc2)cc1)C(Cl)(Cl)Cl` (centres unmarked) the figure was 2.24%.

On to `CCc1c(C)nc(SCc2cccnc2)[nH]c1=O`, for which the “hERG current change (%, negative = inhibition) at 10uM” value was determined as 6.67%. The result for `Cc1nc(-c2ccc(C(=O)Nc3cccc(F)c3)cc2)cs1` reads 20.6%; that for `Cc1cc(C)nc(SCc2cn3ccccc3n2)n1`, 4.69%; that for `N#Cc1c(Cl)nc(N/N=C/c2ccccc2)c(Cl)c1Cl`, 4.71%. The result for `CCn1c(-c2cc(-c3cc(OC)ccc3OC)nc3ccccc23)n[nH]c1=S` reads -10.3%; that for `C=CCOn1c(=O)c(-c2ccccc2)[n+]([O-])c2ccccc21`, 2.17%. With `Cn1ccc(=Nc2ccc(NC(=O)c3ccc(N=c4ccn(C)c5ccc([N+](=O)[O-])cc45)cc3)cc2)cc1` the figure was -8.52%; with `CCCCCC(=O)N1CCCC(c2nc(-c3ccc(OC)cc3)no2)C1` (centres unmarked), -24.9%; with `COc1ccc(C2C=C(c3ccc(Br)s3)Nc3ncnn32)cc1OC` (centres unmarked), -33%. For the compound `O=C1Nc2ccccc2Sc2ccccc21`, the “hERG current change (%, negative = inhibition) at 10uM” value was 10%.

Consider `N#Cc1cnn(-c2ccccc2)c1N`, for which the “hERG current change (%, negative = inhibition) at 10uM” value was 8.8%. On to `Nc1nc2n(n1)C(c1ccc(Cl)cc1)CC(c1ccc(F)cc1)N2` (centres unmarked), for which the “hERG current change (%, negative = inhibition) at 10uM” value was -28.5%. The result for `CN(C)c1ccc(NC(=O)CN2CCC(C(=O)c3ccc(F)cc3)CC2)cc1` reads -32.1%; that for `CC(NC(=O)C(=O)N/N=C/c1ccc(Cl)cc1)c1ccccc1` (centres unmarked), -21.2%; that for `CC(C)(C)NC(=O)CSc1nnc(-c2ccncc2)n1Cc1ccccc1`, -7.27%.

For the compound `O=C(NC(=S)Nc1cccc2c(O)cccc12)c1ccccc1[N+](=O)[O-]`, the “hERG current change (%, negative = inhibition) at 10uM” value is given as 14.6%.

Turning to `CCN1CCC[C@H]1CNC(=O)c1cc(S(N)(=O)=O)ccc1OC`, the “hERG current change (%, negative = inhibition) at 10uM” value was -2.79%.

Take `Cc1cccc2[nH]c(CCNC(=O)C3CCC(=O)N(CCc4cccc(F)c4)C3)nc12` (centres unmarked): the “hERG current change (%, negative = inhibition) at 10uM” value came out at 17.1%. For `Cc1ccc(S(=O)(=O)Nc2c(C(=O)O)[nH]c3ccccc23)cc1C`, the “hERG current change (%, negative = inhibition) at 10uM” value is given as 4.02%. With `COC(=O)c1cc(NC(=O)Cc2ccccc2[N+](=O)[O-])ccc1Cl` the figure was -21.5%; with `CNS(=O)(=O)c1cccc(C(=O)OCCCOC(=O)c2cccc(S(=O)(=O)NC)c2)c1`, 7.27%. Regarding `Cc1ccc2[nH]c(C)c(CC(=O)NCc3ccccc3)c2c1`, the “hERG current change (%, negative = inhibition) at 10uM” value is given as 9.6%.

In the case of `CCOc1ccc2nc(NC(=O)CSc3nc4ccccc4c(=O)n3Cc3ccco3)sc2c1`, the “hERG current change (%, negative = inhibition) at 10uM” value is -2.58%.

`CCc1ccc(OC(=O)CN2C(=O)c3ccccc3C2=O)cc1`: the “hERG current change (%, negative = inhibition) at 10uM” value was 20.4%. The result for `CC(=O)NNC(=O)c1cc2c3ccccc3n(C)c2s1` reads 16.6%; that for `O=C(NCc1cn2ccccc2n1)c1ccccc1`, 11.3%. For `CCOC(=O)N1CCN(S(=O)(=O)c2c[nH]c(C(=O)OC)c2)CC1`, the “hERG current change (%, negative = inhibition) at 10uM” value is on record as 12%. `CC(C)(C)c1ccc(C(=O)NCCC(=O)N2CCN(c3ncccn3)CC2)cc1`: the “hERG current change (%, negative = inhibition) at 10uM” value is listed as -13.4%. With `Cc1ccc(OCc2cccc(S(=O)(=O)N(C)C)c2)c([N+](=O)[O-])n1` the figure was 7.68%. The result for `CC(C)C1N(C(=O)N(C)C)CCN1S(=O)(=O)c1ccccc1` (centres unmarked) reads 15.2%. With `CC(C)(C)N1OC2CC1c1nc3ccccc3n1C2` (centres unmarked), the “hERG current change (%, negative = inhibition) at 10uM” value amounted to 21.6%.

`O=S(=O)(NC1=NCCCCC1)c1ccc2sc(NS(=O)(=O)c3ccc4ccccc4c3)nc2c1`: the “hERG current change (%, negative = inhibition) at 10uM” value was 9.13%. Turning to `Cc1cc(NCCN(C)C)n2nc(-c3cccs3)cc2n1`, the “hERG current change (%, negative = inhibition) at 10uM” value is -34.8%.

On to `Cc1nc2ccccc2n1/N=C/c1ccc([N+](=O)[O-])o1`, for which the “hERG current change (%, negative = inhibition) at 10uM” value was -58.9%.

For the compound `COc1ccccc1OCCCOc1cccc(/C=C2\SC(=O)NC2=O)c1`, the “hERG current change (%, negative = inhibition) at 10uM” value came out at 19.5%. With `Cc1cccc(NC(=O)/C(=C/c2cccc([N+](=O)[O-])c2)NC(=O)c2cccs2)c1` the figure was 10.2%; with `Cc1ccc2nc(SCC(=O)NCCCN3CCCC3=O)[nH]c2c1`, 0.804%; with `CC(C)(C)C(=O)C[n+]1cccc(C(N)=O)c1.[Br-]`, 21%. As for `C=CCOc1c(Br)cc(CNn2nnnc2N)cc1OCC`, the “hERG current change (%, negative = inhibition) at 10uM” value was -4.18%. With `COc1cccc(CNC(=O)CCC2CCCN(C(=O)c3cc(C)on3)C2)c1` (centres unmarked), the “hERG current change (%, negative = inhibition) at 10uM” value is 5.3%. The result for `COc1ccc(OC)c(-n2c(O)c(/C=C3\C(C)=Nc4ccccc43)c(=O)[nH]c2=O)c1` reads 15.1%.
